Measurements as given in PubChem BioAssay AID485294 (National Center for Advancing Translational Sciences (NCATS), 2010).
Screen size: about 370,000 compounds; about 150 (0.041%) were called active. Inconclusive results, whose numbers are uncertain, are shown with a selection of clear calls. The call rests on the fitted dose curve; in most records, active means well fitted inhibition curve with a large enough effect; inconclusive means small, poorly fitted or top-dose-only effect; inactive means flat fitted curve, though single readings scatter. Potencies of inconclusive entries are left out as doubtful fits.

What follows are molecules tested against Beta-lactamase (Escherichia coli (strain K12)) (UniProt P00811) (assay: qHTS Inhibitors of AmpC Beta-Lactamase (assay with detergent)). Conditions: AmpC hydrolysis of nitrocefin, absorbance 480 nm, 0.01% Triton; series mostly up to 114 µM.
Sequence of UniProt P00811 (P00811 whole entry, looked up): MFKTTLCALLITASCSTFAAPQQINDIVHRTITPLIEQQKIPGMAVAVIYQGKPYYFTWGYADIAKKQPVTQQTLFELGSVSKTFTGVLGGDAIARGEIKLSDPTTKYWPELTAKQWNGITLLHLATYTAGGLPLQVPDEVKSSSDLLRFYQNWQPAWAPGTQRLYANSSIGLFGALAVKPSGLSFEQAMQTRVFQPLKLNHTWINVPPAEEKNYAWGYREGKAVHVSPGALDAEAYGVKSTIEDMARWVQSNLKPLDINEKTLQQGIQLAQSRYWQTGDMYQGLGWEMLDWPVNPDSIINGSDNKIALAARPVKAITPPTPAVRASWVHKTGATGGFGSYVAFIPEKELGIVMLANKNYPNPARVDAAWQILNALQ
Summary of the method: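 20 mM phosphate pH 7.0 + 0.01% (detergent screen) or 0.0001% Triton X-100; 5.3 nM AmpC reagent; cpd preinc 15 min RT; nitrocefin (800 uM stock) to start; A480 q20 s × 4 min; Activity was normalised to no-enzyme and no-compound control wells.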
Further: nearly all actives have a fitted effect of over 25% in size.
Potency means the concentration at half of the fitted maximal effect; tags describe the fitted curve by direction and shape.

Q: How did the Potency turn out when Cc1cccn2c(=O)c3cc(C(=O)NCCC4=CCCCC4)n(C)c3nc12 was run?
A: The Potency was “inactive”.

Q: How did the Potency turn out when COc1ccc(-c2nnc(SCC(=O)N3CCOCC3)n2C)cc1OC was run?
A: Its Potency is inconclusive [inhibitor, partial curve, poor fit].

Q: For Cc1ccc(CNC(=O)CCNC(=O)Cn2ccc3ccccc3c2=O)o1, which Potency is on record?
A: Its Potency is inconclusive [inhibitor, full curve, poor fit].

Q: CCCc1cc(=O)[nH]c2nnc(SCC(=O)Nc3cc(C)on3)n12 was tested. Which Potency did it give?
A: Its Potency is inconclusive [inhibitor, full curve, poor fit].

Q: With O=C(N/N=C/c1ccc(Br)s1)c1ccccc1[N+](=O)[O-] as the molecule, how does the Potency read?
A: Its Potency is inconclusive [inhibitor, full curve, poor fit].

Q: With CCOCC(=O)Nc1c(C(=O)Nc2ccc3c(c2)OCCO3)oc2ccccc12 as the molecule, how does the Potency read?
A: The Potency was “inactive”.

Q: For COc1ccc2oc(=O)c(-c3nnc(NCc4ccco4)s3)cc2c1, which Potency is on record?
A: The Potency was “inactive”.

Q: With O=C(O)c1cccc(N/N=C/c2sc(N3CCOCC3)nc2-c2ccccc2)c1 as the molecule, how does the Potency read?
A: Its Potency is inconclusive [inhibitor, single point].

Q: How did the Potency turn out when CS(=O)(=O)c1ccc(-c2nnn(CC(=O)N3CCCCC3)n2)cc1 was run?
A: Its Potency is inconclusive [inhibitor, partial curve, poor fit].

Q: Cc1nn2c3c(cnc2c1-c1ccc(Cl)cc1)C(=O)CC(c1ccc(C(C)C)cc1)C3 (stereo unspecified) was tested. Which Potency did it give?
A: The Potency was “inactive”.

Q: How did the Potency turn out when NS(=O)(=O)c1ccc(NC(=O)COC(=O)C2CCCCC2)cc1 was run?
A: Its Potency is “inactive”.

Q: With Cc1ccc(S(=O)(=O)CCC(=O)Nc2ccc(Br)cc2)cc1 as the molecule, how does the Potency read?
A: The Potency was “inactive”.

Q: Which Potency does the source give for O=C(NNC(=S)Nc1ccc(Br)cc1Cl)c1ccco1 here?
A: Its Potency is inconclusive [inhibitor, partial curve, poor fit].

Q: CC(C)(C)c1cc(CN2CCN(CCC#N)CC2)cc(C(C)(C)C)c1O was tested. Which Potency did it give?
A: The Potency was active: 35.5 µM.

Q: CN(CC1CCCCO1)C(=O)c1cc(COc2ccc(F)cc2Cl)on1 (stereo unspecified) was tested. Which Potency did it give?
A: Its Potency is inconclusive [inhibitor, full curve, poor fit].

Q: O=C(C1CCC(=O)N1Cc1ccc(F)cc1)N1CCC2(CC1)OCCO2 (stereo unspecified) was tested. Which Potency did it give?
A: The Potency was inconclusive [inhibitor, full curve].

Q: With CC(C)Oc1cccc(C(=O)C2CCCN(S(C)(=O)=O)C2)c1 (stereo unspecified) as the molecule, how does the Potency read?
A: The Potency was “inactive”.

Q: Cc1cccc(OCC(=O)Nc2cccc(C(=O)OCc3cc(=O)n4nc(C(C)C)sc4n3)c2)c1 was tested. Which Potency did it give?
A: Its Potency is “inactive”.

Q: With CCCCOc1c(Br)cc(CNCCCN2CCOCC2)cc1OC as the molecule, how does the Potency read?
A: Its Potency is “inactive”.

Q: COc1ccc(S(=O)(=O)Cc2ccccc2)cc1N was tested. Which Potency did it give?
A: Its Potency is inconclusive [inhibitor, partial curve, poor fit].

Q: Which Potency does the source give for CC(=O)Nc1cc(C(=O)N2CCC3(CC2)OCCO3)ccc1S(=O)(=O)c1ccc(Cl)cc1 here?
A: The Potency was inconclusive [inhibitor, full curve, poor fit].
